Results as given in patent US12129305B2, “Targeting CLPTM1L for treatment and prevention of cancer” (The Medical College of Wisconsin, Inc., priority 2018, dated 2024).

Test system: MCW-SL3cis cells
Experiment: spheroid growth and viability (MTT) with cisplatin and/or antibody
Assay type: cell-based, human
Procedure: (A) A2780 apoptotic killing (casp 3/7 live imaging) after 36 hour mAb treatment (scFv clones 102-4a left, 102-5a right) and 24-hour carboplatin treatment. (B) Dose-response to up to 20 μM carboplatin in resistant A2780 cells treated with either control IgG1 or 102-5, relative to 0 carboplatin controls. (C) Kinetic killing assay (live imaging) in A2780 with human anti-CLP™1L scFv and/or 10 μM carboplatin treatment. *p<0.05, **p<0.005, ***p<0.0005. (D) Western blotting and densitometry for Akt and phospho-Akt (T308) in A2780 andA2780cis. (E) Cisplatin viability (MTT) inhibition curves for SL3 sensitive (parental) and resistant (SL3cis) tumor spheroids, pAkt (T308) and total Akt western blots on SL3 and SL3cis spheroid lysates (inset). (F) Viability (MTT) of SL3cis spheroids after 16 days of growth, treated with cisplatin and/or 102-5 anti-CLPTM1L at the indicated concentrations beginning at 4 days post-seeding. *p<0.05, **p<0.005. (G) Photomicrographs of SL3cis spheroids after 16 days of growth, treated with cisplatin and/or 102-5 anti-CLPTM1L. (H) Western blotting of SL3cis spheroid lysates for caspase cleavage and Akt phosphorylation after 16 days of growth, treated with cisplatin and/or 102-5 anti-CLPTM1L. (I) Western blotting of SL3cis monolayer cultures for phospho- and total Akt following treatment with control (PSB) or 102-5 anti-CLPTM1L at the indicated concentrations.
ID8 mouse epithelial ovarian cancer cells, A2780, Ovcar4, Panc1, and A549 human tumor cells were obtained from ATCC and authenticated within 6 months of experiments (RRIDs: CVCL_UI14, CVCL_0134, CVCL_0480, CVCL_1627, and CVCL_0023, respectively). Panc1, A2780, Ovcar4 and A549 were cultured in RPMI1640 plus 10% fetal bovine serum (FBS) (ThermoFisher, Waltham, MA). ID8 cells expressing luciferase were obtained from the Katherine Roby Laboratory at the University of Kansas and were authenticated within 6 months of experiments (RRID: CVCL_IU15). ID8 were cultured in DMEM with 4% FBS and 5 mg/ml Insulin transferrin selenium. […]
Combination indices were calculated by: […]

B1: 102-5: Human anti-CRR9/CLPTM1L IgG1; heavy chain V SEQ ID NO:30, light chain V SEQ ID NO:31 (antibody, V domains shown)
VH: EVQLLESGGGLVQPGGSLRLSCAASGFSFSSYEMNWVRQAPGKGPEWISYISSGGGTIYYADSVRGRFTISRDNSNNTLYLQMNSLRPDDTAIYYCARDRGRKWLQLLFDSWGQGTLVTVSS
VL: QAVLTQPPSASGTPGQKVTISCSGSSSNIGSNTVNWYQQLPGTAPKLLIYTNNQRPSGVPDRFSGSKSGASASLAISGLQSKDEADYYCAAWDDSLNGWVFGGGTKLTVLG
modifications: Synthetic- Anti-CRR9/CLPTM1L clone 102-5 heavy chain V; Synthetic- Anti-CRR9/CLPTM1L clone 102-5 light chain V
102-5 with cisplatin, two-way ANOVA p<0.05
  isobole combination index: 0.65
16 days in culture, treatment from day 4
  resistance to cisplatin (spheroid viability, size, number): abrogated resistance to cisplatin in a dose-dependent manner
MCW-SL3cis and parental MCW-SL3 cells, dose-dependent, ANOVA p<0.0005
  anchorage independent growth, antibody alone: sufficient to inhibit anchorage independent growth
